{"source": "PubChem BioAssay (NCATS)", "note": "Inconclusive results, whose numbers are uncertain, are shown with a selection of clear calls. Potencies beside an inconclusive call are fits to weak or partial responses and may not hold up. The source made the active and inactive calls. The call rests on the fitted dose curve; in most records, active means well fitted cell-killing curve with a large enough effect; inconclusive means small, poorly fitted or top-dose-only effect; inactive means no such curve, though single readings can be large or run the other way. On the % scale 0 is the no-effect control and ±100 the full control effect; potency means the concentration at half of the fitted maximal effect; tags describe the fitted curve by direction and shape.", "data": [{"assay": "qHTS of pediatric cancer cell lines to identify multiple opportunities for drug repurposing: Primary screen for MG 63 (6-TG R) cells (AID 1347105); further: nearly all actives have a fitted effect of over 50% in size", "conditions": "MG 63 (6-TG R) viability, CellTiter-Glo, 48 h; activity change, negative = cytotoxic: at 46 µM (top of the series)", "how_it_was_run": "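CRCs from 8- or 11-point titrations (lowest final 0.59 nM NPC, 0.78 nM MIPE). Cell viability: CellTiter-Glo after 48 h incubation, 15 min room-temperature development, luminescence imaging.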", "values": [{"smiles": "Cc1ccc(C(N)=O)cc1Nc1nccc(-c2cn(C(C)C)c3cnccc23)n1", "Potency": "inconclusive: 11.8 µM [cytotoxic, partial curve, poor fit]"}, {"smiles": "COc1cc(C=CC(=O)CC(=O)C=Cc2ccc(O)c(OC)c2)ccc1O", "Potency": "inconclusive: 17.1 µM [cytotoxic, full curve]"}, {"smiles": "CNC(=O)c1ccccc1Nc1nc(Nc2ccc(N3CCOCC3)cc2OC)ncc1Cl", "Potency": "active: 0.935 µM"}, {"smiles": "COc1cc2ncnc(Nc3cccc(Br)c3)c2cc1OC", "Potency": "inconclusive: 0.0743 µM [cytotoxic, full curve]"}, {"smiles": "CCN1CCN(Cc2ccc(-c3cc4c(N[C@H](C)c5ccccc5)ncnc4[nH]3)cc2)CC1", "Potency": "inconclusive: 0.0118 µM [cytotoxic, full curve, poor fit]"}, {"smiles": "CN1CCc2c(n(Cc3ccc(C(=O)NO)cc3)c3ccccc23)C1", "Potency": "inconclusive: 23.5 µM [cytotoxic, single point]"}, {"smiles": "Nc1ncnc2c1ncn2[C@@H]1O[C@H](CO)[C@@H](O)[C@@H]1O", "Potency": "active: 3.72 µM"}, {"smiles": "CCC(C=C[C@@H]1OC(=O)C=C[C@H]1C)=C[C@H](C)CC=CC(C)=C[C@@H](C)C(=O)[C@@H](C)[C@H](O)[C@@H](C)CC(C)=CC(=O)O", "Potency": "inconclusive: 0.0782 µM [cytotoxic, full curve]"}, {"smiles": "NC(N)=NN=C(/C=C/c1ccc([N+](=O)[O-])o1)/C=C/c1ccc([N+](=O)[O-])o1", "Potency": "inconclusive: 33.5 µM [cytotoxic, single point]"}, {"smiles": "Oc1c(I)cc(I)c2cccnc12", "Potency": "inconclusive: 26.6 µM [cytotoxic, single point]"}, {"smiles": "COc1cc(N2CCC(C(N)=O)CC2)ccc1Nc1nc(N)c(Cl)c(Nc2ccccc2S(=O)(=O)C(C)C)n1", "Potency": "inconclusive: 1.18 µM [cytotoxic, full curve]"}, {"smiles": "CCOC(=O)N1CCN([N+]([O-])=NOc2ccc([N+](=O)[O-])cc2C#N)CC1", "activity change, negative = cytotoxic": "inconclusive: -57% [cytotoxic]"}, {"smiles": "NC(=O)c1noc([C@H](CCCC2CCCCC2)CC(=O)NO)n1", "Potency": "inconclusive: 11.8 µM [cytotoxic, full curve, poor fit]"}, {"smiles": "CCCCCN=C(N)N/N=C/c1c[nH]c2ccc(OC)cc12", "Potency": "inconclusive: 26.6 µM [cytotoxic, single point]"}, {"smiles": "C[C@H](NC(=O)C(C#N)=Cc1cccc(Br)n1)c1ccccc1", "activity change, negative = cytotoxic": "inconclusive: -35.1% [cytotoxic]"}, {"smiles": "CC1=C(CC(=O)O)c2cc(F)ccc2C1=Cc1ccc(S(C)=O)cc1", "note": "(stereo not drawn)", "Potency": "inconclusive: 11.8 µM [cytotoxic, full curve]"}, {"smiles": "COc1cc(Cl)cn2c(-c3cccc(NC4CNC4)n3)cnc12", "Potency": "inconclusive: 29.6 µM [cytotoxic, single point]"}, {"smiles": "COc1cc2ncnc(Nc3cccc(Cl)c3)c2cc1OC", "Potency": "inconclusive: 0.935 µM [cytotoxic, full curve]"}]}]}
